Source: PubChem BioAssay AID1745847 (National Center for Advancing Translational Sciences (NCATS), 2022)
About 670 (32%) of roughly 2,100 compounds were called active. Inconclusive results, whose numbers are uncertain, are shown with a selection of clear calls. Calls follow the shape of the dose curve; as a rule, active = well fitted inhibition curve with a large enough effect; inconclusive = small, poorly fitted or top-dose-only effect; inactive = no such curve, though single readings can be large or run the other way. Potencies beside an inconclusive call are fits to weak or partial responses and may not hold up.

Test: CMV-Luciferase Counterscreen for Inhibitors of ATXN expression; also: nearly all actives have a fitted effect of over 55% in size
Settings: HEK-293 CMV-luciferase reporter, luminescence, 24 h; series mostly up to 57.5 µM
Text: PI: Daniel Scoles Ph.D. University of Utah School of Medicine, Salt Lake City, Utah MLPCN Grant: NS073009 Spinocerebellar ataxia type 2 (SCA2) is a multisystem neurodegenerative disease caused by a dominantly acting mutation leading to expansion of a polyQ domain in the ataxin-2 protein (ATXN2). SCA2 patients develop progressive ataxia and later lose function in other neuronal systems. Prominent parkinsonian signs develop in some patients. Like many neurodegenerative disorders, no symptomatic or disease-modifying treatments are known. The primary objective of the proposed research is to identify compounds inhibiting ATXN2 expression and to test them for efficacy in SCA2 mouse models. We have developed a cell-based assay paired with an in vivo mouse model using identical luciferase expression constructs. This approach takes advantage of an ATXN2-luciferase transgene, with the luciferase gene flanked by the upstream and downstream portions of the ATXN2 gene. Here we describe a 5-7 dose quantitative high thoroughput screen (qHTS) for compounds lowering ATXN2 expression. We screened the NIH Molecular Libraries Small Molecule Repository (MLSMR) and NCGC's mechanistically annotated (MIPE) and drug repurposing (NPC) collections of compounds for lowering expression of an ATXN2-luciferase reporter in HEK-293 cells. The assay is a multiplexed cell viability assay to ensure target reduction in the absence of cytotoxicity. Secondary qHTS assays included a CMV-luciferase reporter expressed in HEK-293 cells as well as a biochemical assay using recombinant luciferase to detect inhibitors of the reporter enzyme. Compounds that inhibit ATXN2 expression but is not cytotoxic were selected for confirmatory and secondary screens.
PROTOCOL TABLE (as described by Inglese J, Shamu CE and Guy RK. 2007) SEQUENCE No. (e.g., 1, 2, 3, etc.); PARAMETER (e.g., Cells, Incubation, Reagent, etc.); VALUE; DESCRIPTION. 1; Cells; 4 uL; white, solid bottom, 1536-well Greiner assay plate. 2; Incubation; 2 hr; 37 degree C in 5% humidified CO2. 3; Compounds; 23 nL; Kalypsis pintool (Wako USA) equipped with a 1536-well pin head. 4; Incubation; 24 hr; 37 degree C in 5% humidfified CO2. 5; Reagent; 1 uL; Gly-Phe-7-Amino-4-trifluoromethylcoumarin. 6; Incubation; 30 min; 37 degree C in 5% humidfified CO2. 7; Detection; Fluorescence; Viewlux plate reader (PerkinElmer). 8; Reagent; 3 uL; SteadyGlo luciferase solution (Promega). 9; Incubation; 5 min; room temperature. 10; Detection; Luminescence; ViewLux plate reader (PerkinElmer). NOTES (numbers refer to Sequence numbers above) 1. HEK-293 cells expressing CMV-luciferase reporter (designated as SC cells) were suspended in phenol-red free DMEM and dispensed in assay plates using a Multidrop Combi dispenser (Thermo Fisher Scientific). 2. Assay plates were incubated. Evaporation was prevented by covering assay plates with metal lids containing holes to allow gas diffusion. 3. Compounds were added in a dose response manner with the final concentrations of 57, 11.4, 2.28, 0.46, 0.091, 0.018, 0.0037 uM. Vehicle-only plates, with DMSO being pin-transferred to columns 5-48, were inserted uniformly at the beginning and the end of each library to monitor and record any shifts in assay performance. 5. 125 uM Gly-Phe-7-Amino-4-trifluoromethylcoumarin (MP Biomedicals) working concentration was used at a final concentration of 25 uM. 7. To assess cell viability; the assay plates were read using the ViewLux high-throughput CCD imager (PerkinElmer), wherein single end-point fluorescence measurement was acquired (excitation 405/10; emission 540/25 nm). 8. Detection reagent SteadyGlo Luciferase (Promega) was added to the assay plate. 10. Luminescence is then measured on the ViewLux imager equipped with a clear emission filter using a 2 sec exposure. […]
% is scaled to controls: 0 for no effect and ±100 for the full control effect; potency is read from the fitted curve at half-maximal effect; tags tell the direction and shape of the fitted curve.

Row | Compound | activity change, negative = inhibition | Potency
1 | COc1cc2c(O)c3c(c(-c4ccc5c(c4)OCO5)c2cc1OC)C(=O)OC3 | inactive: 16.4% [at 11.4 µM] | 
2 | COc1ccc(-c2cc(CNc3nc(NC(C)C)nc4cc(-c5ccccc5)sc34)on2)cc1 |  | inconclusive: 39.8 µM [inhibitor, single point]
3 | Cc1c(C(=O)N2c3ccccc3Sc3ccccc32)cccc1[N+](=O)[O-] |  | inconclusive: 35.5 µM [inhibitor, single point]
4 | CC(C)(O)C#Cc1ccc([C@@H]2C[C@H]3CN(c4ccccc4)C(=O)[C@]34CCCN24)s1 |  | inactive
5 | CCOc1cc(/C=C2\SC(=N)N(c3nccs3)C2=O)ccc1OCCN1CCOCC1 |  | inconclusive: 5.01 µM [inhibitor, full curve, poor fit]
6 | Cc1nc(N2CCN(Cc3ccc4c(c3)OCO4)CC2)c2oc3ccccc3c2n1 |  | inconclusive: 3.55 µM [inhibitor, partial curve, poor fit]
7 | CCN1CCS/C1=C\C=C\C1=[N+](CC)CCS1 |  | active: 3.98 µM
8 | Cc1ccccc1C(=O)N/N=C/c1ccc([N+](=O)[O-])s1 |  | active: 11.2 µM
9 | CCn1c2ccccc2c2cc(/C=N/NC(=O)c3ccncc3)ccc21 |  | active: 2.82 µM
10 | Cc1ccc(CN2CCC(c3cc(-c4ccc(Cl)cc4)n[nH]3)CC2)cc1 |  | active: 22.4 µM
11 | CCc1ccc(/C=C/C(=O)c2cc(Br)ccc(=O)c2O)cc1 |  | inactive
12 | CCCCN(C)c1nc(-c2ccco2)c2c(c1C#N)CC(C)(C)OC2 |  | inconclusive: 28.2 µM [inhibitor, partial curve]
13 | Cc1nc2ncnn2c(N2CCN(c3cccc(C(F)(F)F)c3)CC2)c1C |  | active: 2.51 µM
14 | CN(c1ccc(OCC(=O)N2CCN(c3ccc(F)cc3)CC2)cc1)S(=O)(=O)c1cccs1 |  | inconclusive: 3.55 µM [inhibitor, partial curve, poor fit]
15 | COc1ccc(C(NC(C)=O)c2cc(Cl)c3cccnc3c2O)cc1 (stereo not given) |  | inconclusive: 2.51 µM [inhibitor, full curve, poor fit]
16 | COc1cc(/C=C2\COC/C(=C\c3cc(OC)c(OC)c(OC)c3)C2=O)cc(OC)c1OC |  | inconclusive: 6.31 µM [inhibitor, full curve, poor fit]
17 | NC(=O)Cn1c(=O)n(CCc2ccccc2)c(=O)c2c3c(sc21)CCCC3 |  | inactive
18 | O=C(Nc1cccc(Br)c1)c1cccc(OC(=S)N2CCOCC2)c1 |  | inconclusive: 22.4 µM [inhibitor, partial curve, poor fit]
19 | Cc1ccc(-c2csc(N3CCN(c4cc5c(cc4Cl)nc(-c4ccncc4)n5CCOCCO)CC3)n2)cc1 |  | inconclusive: 35.5 µM [inhibitor, single point]
20 | NC(c1csc(Nc2nccc(C(F)(F)F)n2)n1)C1CCCCC1 (stereo not given) | inactive: 13.2% [at 11.4 µM] | 
21 | Brc1cnc2nc(SCc3nc4ccccc4[nH]3)[nH]c2c1 | inactive: 361% [at 11.4 µM] | 
22 | O=C(NNC1=Nc2ccccc2SC1)c1ccc(Cl)cc1 |  | active: 1.78 µM

Row | Compound | activity change, negative = inhibition | Potency
23 | COC(=O)c1ccc(C(=O)Nc2cc(Cl)ccc2Cl)cc1NC(=O)c1ccc(N(C)C)cc1 | inactive: -1.02% [at 11.4 µM] | 
24 | Cc1ccc2c(Cl)cc(Cl)c(OCC(=O)Nc3cc(S(=O)(=O)N(C)C)ccc3C)c2n1 |  | inconclusive: 4.47 µM [inhibitor, single point]
25 | Cc1cccc2[nH]c3c(N4CC=C(c5ccc(F)cc5)CC4)ncnc3c12 |  | inconclusive: 28.2 µM [inhibitor, partial curve, poor fit]
26 | Oc1cccc(C(O)CNCc2ccc(-c3ccccc3)cc2)c1 (stereo not given) |  | inactive
27 | NC(=O)C1CCN(C2=C(Cl)C(=O)c3ccccc3C2=O)CC1 |  | inconclusive: 7.08 µM [inhibitor, partial curve, poor fit]
28 | CCOC(=O)c1c2ccc(OCC(=O)N/N=C/c3ccc(C)cc3)cc2n2ccccc12 |  | inconclusive: 31.6 µM [inhibitor, single point]
29 | CCCC(NCC(O)COc1ccc(-c2ccccc2)cc1)c1ccccc1 (stereo not given) |  | inconclusive: 22.4 µM [inhibitor, partial curve, poor fit]
30 | COc1cnc(-c2ccccn2)nc1Oc1ccc(Cl)c2ccccc12 |  | inconclusive: 3.98 µM [inhibitor, single point]
31 | Cc1nc(SCc2ccc(C(=O)O)cc2)nc2c1CCCC2 |  | inconclusive: 3.98 µM [inhibitor, single point]
32 | Cc1cc(C)c2c(c1)/C(=C/C(=O)c1ccc(Br)s1)C(=O)N2 |  | inconclusive: 3.55 µM [inhibitor, partial curve, poor fit]
33 | CC(C)Nc1nc(NC(C)C)nc(N(C#N)CCOc2ccc(Cl)cc2Cl)n1 |  | inconclusive: 3.16 µM [inhibitor, single point]
34 | COc1ccc(Cl)cc1C(Nc1cccnc1)c1ccc2cccnc2c1O (stereo not given) |  | inconclusive: 8.91 µM [inhibitor, partial curve]
35 | COc1cc2c3nnc(-c4ccc(F)cc4)c-3cn(Cc3ccc(F)cc3)c2cc1OC | inactive: -11.8% [at 11.4 µM] | 
36 | CCc1ccccc1OCC(=O)Nc1nc(-c2cccnc2)cs1 |  | inconclusive: 10 µM [inhibitor, partial curve]
37 | CCN(CC)c1c(C)nc2ccc(C(=O)Nc3cc(-c4ccccc4)ccc3OC)cn12 |  | inconclusive: 20 µM [inhibitor, partial curve, poor fit]
38 | Cc1ccc(NC(=O)/C=C/c2ccc([N+](=O)[O-])s2)c(C)c1 |  | inconclusive: 8.91 µM [inhibitor, single point]
39 | Cc1cc(C)c(C)c(OC(=O)c2sc(Cl)nc2C)c1 |  | inconclusive: 8.91 µM [inhibitor, partial curve, poor fit]
40 | Cc1cccc2sc(N(CCCN(C)C)C(=O)c3ccco3)nc12 |  | inactive
41 | CCOC(=O)Cn1cc(C(=O)c2ccco2)c2ccccc21 | inactive: -4.82% [at 11.4 µM] | 
42 | OC[C@@H]1CN(Cc2ccc(-c3ccccc3)cc2)C[C@H](n2cnc3c(Nc4ccccc4)ncnc32)O1 |  | active: 12.6 µM
43 | Nc1c(C(=O)NCc2ccc3c(c2)OCO3)c2nc3ccccc3nc2n1CCCN1CCOCC1 |  | inconclusive: 31.6 µM [inhibitor, partial curve, poor fit]
44 | Cc1ccc(NC(=O)c2cnc(N3CCN(c4ccccn4)CC3)c3ccccc23)c(Br)c1 |  | active: 14.1 µM

Row | Compound | activity change, negative = inhibition | Potency
45 | O=C(N/N=C\c1ccc([N+](=O)[O-])s1)c1cncc(Br)c1 |  | inconclusive: 12.6 µM [inhibitor, partial curve, poor fit]
46 | Cc1ccccc1C(=O)N1CCN(c2ccc(NC(=O)c3ccc4c(c3)OCCO4)cc2)CC1 |  | active: 2.24 µM
47 | COc1ccccc1NS(=O)(=O)c1cccc(C(=O)N/N=C/c2ccc([N+](=O)[O-])o2)c1 |  | inconclusive: 3.55 µM [inhibitor, full curve]
48 | COC1=C(c2ccccc2)C(=O)c2ccccc2C1=O |  | inconclusive: 1.12 µM [inhibitor, partial curve, poor fit]
49 | CCCCOC(=O)/C=C\C(=O)NC(N)=O |  | active: 14.1 µM
50 | Cc1ccc(S(=O)(=O)Nc2cccc3cccnc23)cc1 |  | inconclusive: 7.94 µM [inhibitor, full curve, poor fit]
51 | NS(=O)(=O)c1ccc(NC(=O)COC(=O)c2c3c(nc4ccccc24)/C(=C\c2ccc4c(c2)OCO4)CCC3)cc1 |  | inconclusive: 35.5 µM [inhibitor, single point]
52 | CC(C)=CCc1c(O)cc2oc3c(CC=C(C)C)c(O)c(O)c(CC=C(C)C)c3c(=O)c2c1O |  | inconclusive: 3.55 µM [inhibitor, single point]
53 | CCCC(=O)NC(c1ccc(OC)c(OC)c1)c1cc(Cl)c2cccnc2c1O (stereo not given) |  | active: 4.47 µM
54 | CC(=O)Nc1cccc(-c2ccnc3c2CC(C)(C(=O)Nc2ccc(F)c(Cl)c2)O3)c1 (stereo not given) |  | inconclusive: 31.6 µM [inhibitor, single point]
55 | CCn1c(C)nc2cc(C(=O)N/N=C(\C)c3ccc(OC)cc3O)ccc21 |  | inconclusive: 10 µM [inhibitor, partial curve, poor fit]
56 | CCc1c2c(nc3ccc(OC(=O)N4CCC(N5CCCCC5)CC4)cc13)-c1cc3c(c(=O)n1C2)COC(=O)[C@]3(O)CC |  | inconclusive: 0.224 µM [inhibitor, full curve, poor fit]
57 | O=C(Nc1ccc(NC(=O)c2ccco2)cc1)c1ccc2c(c1)OCCO2 |  | inconclusive: 8.91 µM [inhibitor, partial curve]
58 | Cc1nc(SC2CC(=O)N(c3ccccc3)C2=O)n[nH]1 (stereo not given) |  | inactive
59 | C(=N\NC(=Nc1ccccc1)c1ccccn1)/c1ccccn1 |  | inactive
60 | CCC(=O)NNC(=S)NC(=O)c1ccc(C)cc1 |  | inconclusive: 3.55 µM [inhibitor, full curve]
61 | COc1ccccc1N1C(=O)N(C(C)=O)C2C1Nc1ccccc1N2C (stereo not given) |  | inactive
62 | Cc1cc[n+](C(C)C(=O)c2ccc(-c3ccccc3)cc2)cc1 (stereo not given) |  | active: 10 µM
63 | CCc1ccc(C(O)c2ncc(-c3cccc(C(F)(F)F)c3)[nH]2)cc1 (stereo not given) |  | inconclusive: 20 µM [inhibitor, single point]
64 | O=[N+]([O-])c1ccc(O)c(/C=N\N=C2c3ccccc3-c3ccccc32)c1 |  | inconclusive: 2.82 µM [inhibitor, full curve, poor fit]
65 | OC(c1ccc(Cl)cc1)c1ncc(-c2cccc(C(F)(F)F)c2)[nH]1 (stereo not given) |  | inconclusive: 3.16 µM [inhibitor, partial curve, poor fit]
